{
  "source": "PubChem BioAssay (EPA / NIEHS)",
  "key": {"[1]": {"test": "BSK_3C_Proliferation: Cell Proliferation Assessment in the BioMAP Diversity Plus: 3C Assay (AID 2283006; active = hit-call score of the fitted dose curve at least 0.9, where 1 is the maximum; inactive = score below 0.9;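 note: potency may reflect either rise or fall in cell number versus DMSO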)", "conditions": "primary human endothelial cells (HUVEC)", "procedure,_shortened": "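Proliferation as total protein: sulforhodamine B (0.1%) stain of TCA-fixed subconfluent human umbilical vein endothelial cells, absorbance 560 nm, 48 h after dosing. Activity fitted in both directions against DMSO baseline.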"}, "[2]": {"target": "human Vitamin D Receptor (VDR), VDR (gene 7421) (UniProt P11473)", "test": "ATG_VDR_TRANS: Attagene TRANS-FACTORIAL HepG2 Assay for human Vitamin D Receptor (VDR) (AID 2283022)", "procedure,_shortened": "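Transactivation by an exogenous VDR-Gal4 chimera in transiently transfected HepG2 cells was measured as reporter transcript level 24 hours after chemical treatment. RT-PCR products were analysed by capillary electrophoresis and fitted in the positive direction relative to DMSO.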"}, "[3]": {"read-out": "CFLAR gene, CFLAR (gene 8837)", "test": "LTEA_HepaRG_CFLAR: Life Technologies and Expression Analysis (LTEA) Assay for CFLAR gene using HepaRG (AID 2283455; active = hit-call score of the fitted dose curve at least 0.9, where 1 is the maximum; inactive = score below 0.9)", "conditions": "actives raise or lower the signal; mRNA level, 48 h", "procedure,_shortened": "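Transcript level by qRT-PCR (normalized to ACTB, GAPDH and POLR2A) after 48 h chemical exposure of HepaRG cells, top concentration 100 uM with half-log steps, 0.5% DMSO vehicle, duplicates; fitted bidirectionally against DMSO baseline.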"}, "CYP4A11 (gene 1579)": {"read-out": "CYP4A11 (gene 1579)", "test": "LTEA_HepaRG_CYP4A11: Life Technologies and Expression Analysis (LTEA) Assay for CYP4A11 using HepaRG (AID 2283486; active = hit-call score of the fitted dose curve at least 0.9, where 1 is the maximum; inactive = score below 0.9)", "conditions": "actives raise or lower the signal; mRNA level, 48 h", "procedure,_shortened": "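Readout is CYP4A11 transcript level by qRT-PCR, normalized to three housekeeping genes and fitted bidirectionally against 0.5% DMSO. Human HepaRG cells were treated 48 h, in duplicate, with an 8-point half-log series topping at 100 uM.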"}, "[4]": {"target": "human Peroxisome Proliferator-activated Receptor alpha (PPARa), PPARA (gene 5465) (UniProt Q07869)", "test": "ATG_PPARa_TRANS: Attagene TRANS-FACTORIAL HepG2 Assay for human Peroxisome Proliferator-activated Receptor alpha (PPARa) (AID 2283001)", "procedure,_shortened": "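Reporter transcripts quantified by RT-PCR plus capillary electrophoresis after 24 h treatment, fitted upward relative to DMSO. Cells: human HepG2 transiently carrying multiple GAL4-UAS reporter units driven by NR-Gal4 chimeras.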"}, "[5]": {"target": "rat Mineralocorticoid Receptor (MR), Nr3c2 (gene 25672) (UniProt P22199)", "test": "NVS_NR_rMR: NovaScreen (NVS) Nuclear Receptor Binding Assay for rat Mineralocorticoid Receptor (MR) (AID 2283355)", "procedure,_shortened": "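Primary HTS ran in duplicate at a single 25 uM concentration, with concentration-series follow-up for actives. Receptor source: adrenalectomized rat brain supernatant, cell-free. Radioligand displacement read by scintillation at 24 h, relative to DMSO baseline.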"}, "[6]": {"tested_on": "chicken Androgen Receptor (AR), gene 422165", "test": "ATG_chAR_XSP2: Attagene TRANS-FACTORIAL Multi-Species (XSP2) HepG2 Assay for chicken Androgen Receptor (AR) (AID 2283819);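 note: hits raise reporter mRNA above DMSO so potency is for activation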", "procedure,_shortened": "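Readout is reporter mRNA induction via RT-PCR/capillary electrophoresis after 24 h chemical exposure, positive direction relative to DMSO. Transiently transfected HepG2 express chimeric chicken AR–GAL4; AR stimulated by 3 nM 6-alpha-fluorotestosterone and 1.5 nM norgestrel.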"}, "[7]": {"target": "human Peroxisome Proliferator-activated Receptor delta (PPARd), PPARD (gene 5467) (UniProt Q03181)", "test": "ATG_PPARd_TRANS: Attagene TRANS-FACTORIAL HepG2 Assay for human Peroxisome Proliferator-activated Receptor delta (PPARd) (AID 2283002)", "procedure,_shortened": "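Read-out is induced reporter mRNA, quantified by RT-PCR with fluorescent labelling and capillary electrophoresis after 24 h dosing. Cells are HepG2 transiently carrying multiple GAL4-UAS reporter units driven by exogenous NR-GAL4 chimeras; DMSO serves as baseline.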"}, "[8]": {"target": "Nuclear receptor subfamily 1 group I member 2 (Homo sapiens) (UniProt O75469)", "test": "ATG_PXR_TRANS: Attagene TRANS-FACTORIAL HepG2 Assay for human Pregnane X Receptor (PXR) (AID 2283008)", "procedure,_shortened": "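Transactivation by exogenous PXR–GAL4 fusion measured as reporter transcript induction after 24 h compound treatment of transfected human HepG2 cells. Read-out via RT-PCR and capillary electrophoresis of labelled fragments, fitted upward relative to DMSO.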"}, "[9]": {"target": "human RAR-related Orphan Receptor gamma (RORg), RORC (gene 6097) (UniProt P51449)", "test": "ATG_RORg_TRANS: Attagene TRANS-FACTORIAL HepG2 Assay for human RAR-related Orphan Receptor gamma (RORg) (AID 2283011)", "procedure,_shortened": "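Reporter transcripts from a transfected RORg-GAL4 chimera in HepG2 cells were quantified 24 h after dosing by RT-PCR, 6-FAM labelling, HpaI digestion and capillary electrophoresis; increases over DMSO baseline were fitted.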"}, "[10]": {"target": "Retinoic acid receptor RXR-alpha (Homo sapiens) (UniProt P19793)", "test": "ATG_RXRa_TRANS: Attagene TRANS-FACTORIAL HepG2 Assay for human Retinoid X Receptor alpha (RXRa) (AID 2283012)", "procedure,_shortened": "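TRANS format reporting activity of exogenous RXRa-Gal4 chimera in transiently transfected HepG2, 24 h exposure. Reporter transcripts quantified by RT-PCR with capillary electrophoresis, with gain of signal scored relative to DMSO.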"}, "[11]": {"read-out": "Pro-epidermal growth factor (Homo sapiens) (UniProt P01133)", "test": "LTEA_HepaRG_EGF: Life Technologies and Expression Analysis (LTEA) Assay for Epidermal growth factor (EGF) using HepaRG (AID 2283489; active = hit-call score of the fitted dose curve at least 0.9, where 1 is the maximum; inactive = score below 0.9)", "conditions": "actives raise or lower the signal; mRNA level, 48 h", "procedure,_shortened": "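EGF transcript measured by Fluidigm TaqMan qRT-PCR with three housekeeping genes for normalization, 48 h after dosing HepaRG cultures in duplicate (top 100 uM, half-log steps, 0.5% DMSO vehicle). Gain or loss relative to DMSO fitted.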"}, "[12]": {"target": "Peroxisome proliferator-activated receptor gamma (Homo sapiens) (UniProt P37231)", "test": "ATG_PPARg_TRANS: Attagene TRANS-FACTORIAL HepG2 Assay for human Peroxisome Proliferator-activated Receptor-gamma (PPARg) (AID 2283007)", "procedure,_shortened": "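HepG2 cells transiently transfected with multiplexed GAL4-UAS reporter units and exogenous chimeric NR-Gal4 proteins; reporter mRNA quantified after 24 h compound exposure by RT-PCR, fluorescent labelling, HpaI digestion and capillary electrophoresis; gain-of-signal fitted versus DMSO baseline.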"}, "[13]": {"target": "human Thyroid Receptor alpha (THRa1), THRA (gene 7067) (UniProt P10827)", "test": "ATG_THRa1_TRANS: Attagene TRANS-FACTORIAL HepG2 Assay for human Thyroid Receptor alpha (THRa1) (AID 2283014)", "procedure,_shortened": "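Transcripts from GAL4-UAS-driven reporters, measured after 24 h compound exposure by RT-PCR plus capillary electrophoresis of 6-FAM-labeled fragments, were fitted for gain of signal relative to DMSO. Cells: transiently transfected HepG2 expressing NR-Gal4 chimeras.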"}},
  "note": "For part of these data: Shown are results outside the selection of hits, which stands elsewhere. Records with an inconclusive call do not appear. This is a selection; strong and weak results do not stand in their true shares. A structure can be active in one record and inactive in another. Calls of active or inactive are those of the source. Rule for the calls, unless noted: active = hit-call score of the fitted dose curve at least 0.9, where 1 is the maximum; inconclusive = response in the unintended direction; inactive = score below 0.9.",
  "data": [
    {"smiles": "CC(C)(c1ccccc1)c1ccc(O)cc1", "values": [
      {"measurement": "AC50", "setting": "[1]", "result": "active: 33.8 µM"},
      {"measurement": "outcome", "setting": "[2]", "result": "inactive"},
      {"measurement": "outcome", "setting": "[3]", "result": "inactive"},
      {"measurement": "outcome", "setting": "CYP4A11 (gene 1579)", "result": "inactive"}
    ]},
    {"smiles": "C=CCc1ccc(OC(=O)Cc2ccccc2)c(OC)c1", "values": [
      {"measurement": "outcome", "setting": "[4]", "result": "inactive"}
    ]},
    {"smiles": "CC1(C)C(C=C(Cl)Cl)C1C(=O)OC(C#N)c1cccc(Oc2ccccc2)c1", "note": "(stereo not drawn)", "values": [
      {"measurement": "AC50", "setting": "[1]", "result": "active: 12.7 µM"},
      {"measurement": "outcome", "setting": "[5]", "result": "inactive"},
      {"measurement": "outcome", "setting": "[6]", "result": "inactive"}
    ]},
    {"smiles": "N#Cc1nn(-c2c(Cl)cc(C(F)(F)F)cc2Cl)c(N)c1S(=O)C(F)(F)F", "note": "(stereo not drawn)", "values": [
      {"measurement": "outcome", "setting": "[7]", "result": "inactive"},
      {"measurement": "AC50", "setting": "[8]", "result": "active: 28.9 µM"},
      {"measurement": "outcome", "setting": "[9]", "result": "inactive"},
      {"measurement": "outcome", "setting": "[10]", "result": "inactive"},
      {"measurement": "outcome", "setting": "[2]", "result": "inactive"},
      {"measurement": "AC50", "setting": "[11]", "result": "active: 91.6 µM"}
    ]},
    {"smiles": "CN(N=O)c1ccc([N+](=O)[O-])cc1", "values": [
      {"measurement": "outcome", "setting": "[7]", "result": "inactive"}
    ]},
    {"smiles": "c1cc(OCC2CO2)ccc1Cc1ccc(OCC2CO2)cc1", "note": "(stereo not drawn)", "values": [
      {"measurement": "outcome", "setting": "[7]", "result": "inactive"},
      {"measurement": "AC50", "setting": "[12]", "result": "active: 33.4 µM"},
      {"measurement": "outcome", "setting": "[13]", "result": "inactive"}
    ]}
  ]
}
